# According to the supplement of paper PMC8728848:
# The other results are listed elsewhere or left out.
# What was measured:
# Assay in all cases: glycan array binding signal (z-score within array); higher = stronger binding
# Conditions in all cases: glycan notation: IUPAC condensed, linker removed; mutation: N288D, K313I
# [1] = biological target: Neu5Ac(a2-3)Gal(b1-4)GlcNAc(b1-2)[Neu5Ac(a2-3)Gal(b1-4)GlcNAc(b1-4)]Man(a1-3)[GlcNAc(b1-4)][Neu5Ac(a2-3)Gal(b1-4)GlcNAc(b1-4)Man(a1-6)]Man(b1-4)GlcNAc(b1-4)GlcNAc
# Outline: (§1)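 The Consortium for Functional Glycomics database supplied 3228 glycan arrays, of which those lacking an available protein sequence were dropped. The binding signal, a within-array Z-score, was averaged across arrays of the same protein sequence and across linkers. Negative scores can be read as non-binding.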
# [2] = biological target: Neu5Ac(a2-3)Gal(b1-4)GlcNAc(b1-2)[Neu5Ac(a2-3)Gal(b1-4)GlcNAc(b1-6)]Man(a1-6)[Neu5Ac(a2-3)Gal(b1-4)GlcNAc(b1-2)Man(a1-3)]Man(b1-4)GlcNAc(b1-4)GlcNAc
# Outline: as §1
# [3] = biological target: Neu5Ac(a2-3)Gal(b1-4)GlcNAc(b1-2)[Neu5Ac(a2-3)Gal(b1-4)GlcNAc(b1-6)]Man(a1-6)[Neu5Ac(a2-3)Gal(b1-4)GlcNAc(b1-2)Man(a1-3)][GlcNAc(b1-4)]Man(b1-4)GlcNAc(b1-4)GlcNAc
# Outline: as §1
# [4] = biological target: Neu5Ac(a2-3)Gal(b1-4)GlcNAc(b1-3)Gal
# Outline: as §1
# [5] = biological target: Neu5Ac(a2-3)Gal(b1-4)GlcNAc(b1-3)Gal(b1-3)GlcNAc
# Outline: as §1
# [6] = biological target: Neu5Ac(a2-3)Gal(b1-4)GlcNAc(b1-3)Gal(b1-4)GlcNAc
# Outline: as §1
# [7] = biological target: Neu5Ac(a2-3)Gal(b1-4)GlcNAc(b1-3)Gal(b1-4)GlcNAc(b1-2)Man(a1-3)[Neu5Ac(a2-3)Gal(b1-4)GlcNAc(b1-3)Gal(b1-4)GlcNAc(b1-2)Man(a1-6)]Man(b1-4)GlcNAc(b1-4)GlcNAc
# Outline: as §1
# [8] = biological target: Neu5Ac(a2-3)Gal(b1-4)GlcNAc(b1-3)Gal(b1-4)GlcNAc(b1-3)Gal(b1-4)GlcNAc
# Outline: as §1
# [9] = biological target: Neu5Ac(a2-3)Gal(b1-4)GlcNAc(b1-3)Gal(b1-4)GlcNAc(b1-3)Gal(b1-4)GlcNAc(b1-2)Man(a1-3)[Neu5Ac(a2-3)Gal(b1-4)GlcNAc(b1-3)Gal(b1-4)GlcNAc(b1-3)Gal(b1-4)GlcNAc(b1-2)Man(a1-6)]GalNAc
# Outline: as §1
# [10] = biological target: Neu5Ac(a2-3)Gal(b1-4)GlcNAc(b1-3)Gal(b1-4)GlcNAc(b1-3)GalNAc
# Outline: as §1
# [11] = biological target: Neu5Ac(a2-3)Gal(b1-4)GlcNAc(b1-3)Gal(b1-4)GlcNAc(b1-3)[Neu5Ac(a2-3)Gal(b1-4)GlcNAc(b1-3)Gal(b1-4)GlcNAc(b1-6)]GalNAc
# Outline: as §1
# [12] = biological target: Neu5Ac(a2-3)Gal(b1-4)GlcNAc(b1-3)Gal(b1-4)GlcNAc(b1-6)[Gal(b1-3)]GalNAc
# Outline: as §1
# [13] = biological target: Neu5Ac(a2-3)Gal(b1-4)GlcNAc(b1-3)Gal(b1-4)[Fuc(a1-3)]GlcNAc
# Outline: as §1
# [14] = biological target: Neu5Ac(a2-3)Gal(b1-4)GlcNAc(b1-3)GalNAc
# Outline: as §1
# [15] = biological target: Neu5Ac(a2-3)Gal(b1-4)GlcNAc(b1-3)[Neu5Ac(a2-3)Gal(b1-4)GlcNAc(b1-6)]GalNAc
# Outline: as §1
# [16] = biological target: Neu5Ac(a2-3)Gal(b1-4)GlcNAc(b1-6)GalNAc
# Outline: as §1
# [17] = biological target: Neu5Ac(a2-3)Gal(b1-4)GlcNAc(b1-6)[Gal(b1-3)]GalNAc
# Outline: as §1
# [18] = biological target: Neu5Ac(a2-3)Gal(b1-4)GlcNAc(b1-6)[Neu5Ac(a2-3)Gal(b1-3)]GalNAc
# Outline: as §1
# [19] = biological target: Neu5Ac(a2-3)Gal(b1-4)GlcNAc6S
# Outline: as §1
# [20] = biological target: Neu5Ac(a2-3)Gal(b1-4)[Fuc(a1-3)]GlcNAc
# Outline: as §1
# [21] = biological target: Neu5Ac(a2-3)Gal(b1-4)[Fuc(a1-3)]GlcNAc(b1-2)Man
# Outline: as §1
# [22] = biological target: Neu5Ac(a2-3)Gal(b1-4)[Fuc(a1-3)]GlcNAc(b1-3)Gal
# Outline: as §1
# [23] = biological target: Neu5Ac(a2-3)Gal(b1-4)[Fuc(a1-3)]GlcNAc(b1-3)Gal(b1-4)GlcNAc
# Outline: as §1
# [24] = biological target: Neu5Ac(a2-3)Gal(b1-4)[Fuc(a1-3)]GlcNAc(b1-3)Gal(b1-4)[Fuc(a1-3)]GlcNAc(b1-3)Gal(b1-4)[Fuc(a1-3)]GlcNAc
# Outline: as §1
# [25] = biological target: Neu5Ac(a2-3)Gal(b1-4)[Fuc(a1-3)]GlcNAc(b1-3)GalNAc
# Outline: as §1
# [26] = biological target: Neu5Ac(a2-3)Gal(b1-4)[Fuc(a1-3)]GlcNAc(b1-6)[Gal(b1-3)]GalNAc
# Outline: as §1
binder,measurement,setting,value
"Langerin (Homo sapiens), Q9UJ71 (protein) STLNAQIPELKSDLEKASALNTKIRALQGSLENMSKLLKRQNDILQVVSQGWKYFKGNFYYFSLIPKTWYSAEQFCVSRNSHLTSVTSESEQEFLYKTAGGLIYWIGLTKAGMEGDWSWVDDTPFNKVQSARFWIPGEPNDAGNNEHCGNIKAPSLQAWNDAPCDITFLFICKRPYVPSEP",glycan array binding signal (z-score),[1],-0.189
same,glycan array binding signal (z-score),[2],-0.072
same,glycan array binding signal (z-score),[3],-0.35
same,glycan array binding signal (z-score),[4],-0.265
same,glycan array binding signal (z-score),[5],-0.184
same,glycan array binding signal (z-score),[6],-0.344
same,glycan array binding signal (z-score),[7],-0.171
same,glycan array binding signal (z-score),[8],-0.227
same,glycan array binding signal (z-score),[9],0.041
same,glycan array binding signal (z-score),[10],-0.189
same,glycan array binding signal (z-score),[11],0.135
same,glycan array binding signal (z-score),[12],0.059
same,glycan array binding signal (z-score),[13],-0.224
same,glycan array binding signal (z-score),[14],-0.218
same,glycan array binding signal (z-score),[15],0.075
same,glycan array binding signal (z-score),[16],-0.165
same,glycan array binding signal (z-score),[17],-0.298
same,glycan array binding signal (z-score),[18],-0.09
same,glycan array binding signal (z-score),[19],-0.294
same,glycan array binding signal (z-score),[20],-0.265
same,glycan array binding signal (z-score),[21],-0.159
same,glycan array binding signal (z-score),[22],-0.338
same,glycan array binding signal (z-score),[23],-0.02
same,glycan array binding signal (z-score),[24],0.101
same,glycan array binding signal (z-score),[25],0.034
same,glycan array binding signal (z-score),[26],0.107
